The supplement of paper PMC9446081
Out of some 39,000 compounds screened, about 220 (0.56%) showed activity. This is one part of the list.

System: Escherichia coli K-12 BW25113
Test: relative growth (OD600 normalised to plate interquartile mean) (fraction); higher = less growth inhibition, active = 0.2 or less
Conditions: 50 µM; LB; incubation time: overnight (16-24 h)
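Further: static incubation at 37 °C against the wild-type strain, values averaged over two biological replicates.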

Row | Structure (SMILES) | relative growth
1 | C[C@@H]1CN([C@@H](C)CO)C(=O)c2cc(NC(=O)Nc3ccc(C(F)(F)F)cc3)ccc2O[C@@H]1CN(C)Cc1ccc(Oc2ccccc2)cc1 | inactive: 1.01
2 | Cc1cnc(CNC(=O)[C@H]2C[C@H]3[C@@H](CCN3S(C)(=O)=O)O2)cn1 | inactive: 1
3 | C[C@@H]1CN([C@@H](C)CO)C(=O)c2cc(NS(=O)(=O)c3ccc(Cl)cc3)ccc2O[C@@H](C)CCCCO[C@@H]1CN(C)S(=O)(=O)c1ccc(Cl)cc1 | inactive: 1.02
4 | O=C1C(CCC(O)c2ccc(F)cc2)C(c2ccc(O)cc2)N1c1ccc(F)cc1 (configuration not stated) | inactive: 0.88
5 | NC(Cc1c[nH]c2ccccc12)C(=O)O (configuration not stated) | inactive: 1.06
6 | CNC[C@H]1Oc2cc(C#CCN(C)C)ccc2S(=O)(=O)N([C@H](C)CO)C[C@@H]1C | inactive: 1.02
7 | CN1C(=O)N(C)[C@H]2NC(=O)N[C@@H]21 | inactive: 0.993
8 | C[C@H]1CN([C@@H](C)CO)S(=O)(=O)c2ccc(C#CC3CCCC3)cc2O[C@@H]1CN(C)Cc1cncnc1 | inactive: 1
9 | COC(=O)c1c(CC[C@@H](CO)NC(=O)N[C@H](Cn2cc(-c3cncn3C)nn2)C(C)C)oc(C(C)=O)c1C(=O)OC | inactive: 1
10 | O=C1c2ccccc2[C@@]2(Cc3ccccc3N(CC(F)(F)F)C2=O)[C@H](c2ccc(CO)cc2)N1Cc1ccccc1 | inactive: 1.01
11 | C[C@H](CO)N1C[C@H](C)[C@H](CN(C)C(=O)C2CCCCC2)OCCCC[C@H](C)Oc2ccc(NS(=O)(=O)c3ccc(F)cc3)cc2C1=O | inactive: 0.995
12 | CCC(=O)N1C[C@]2(C1)CN([C@@H](CO)c1[nH]c3cc(ccc3c12)OC)C(=O)CN1CCOCC1 | inactive: 1.02
13 | C[C@@H]1CCCCO[C@@H](CN(C)Cc2ccc3c(c2)OCO3)[C@@H](C)CN([C@H](C)CO)C(=O)c2cc(NC(=O)C3CCCCC3)ccc2O1 | inactive: 1.01
14 | O=C(C[C@@H]1CC[C@H]2[C@@H](COC[C@@H](O)CN2Cc2cc(F)ccc2F)O1)N[C@H]1CCN(Cc2ccccc2)C1 | inactive: 0.988
15 | C[C@H](CO)N1C[C@H](C)[C@H](CN(C)Cc2ccc(Cl)c(Cl)c2)Oc2ccc(NC(=O)Nc3ccc(F)cc3)cc2CC1=O | inactive: 0.997
16 | CCCc1cc(=O)n2ncnc2[nH]1 | inactive: 0.904

Row | Structure (SMILES) | relative growth
17 | Cc1noc(C)c1NC(=O)N(C)C[C@H]1OCCCC[C@@H](C)Oc2ccc(NC(=O)CCC(F)(F)F)cc2C(=O)N([C@@H](C)CO)C[C@@H]1C | inactive: 1.03
18 | C[C@@H]1CCCCO[C@H](CN(C)S(=O)(=O)c2ccc(Cl)cc2)[C@@H](C)CN([C@@H](C)CO)C(=O)c2cc(NC(=O)c3ccccc3)ccc2O1 | inactive: 1.03
19 | NCc1cccc(O)c1 | inactive: 0.98
20 | COc1ccc2c3c(n(c2c1)C)[C@@H](CO)N(CC1CCCCC1)C[C@]13CCN(CC1)Cc1nccs1 | inactive: 0.996
21 | Cn1c([C@H]2C=C(C(=O)N3CCOCCOCCOCCOCC3)O[C@@H](OCCCCO)C2)cc(=O)n1-c1ccccc1 | inactive: 0.944
22 | NS(=O)(=O)OC[C@H]1C[C@@H](Nc2ccnc3cc(-c4cccc(SC(F)(F)F)c4)nn23)[C@H](O)[C@@H]1O | inactive: 0.937
23 | O=C1C[C@]2(c3ccc([N+](=O)[O-])cc3)C(=O)N(Cc3ccccc3)c3cc(CO)ccc3[C@H]2N1C1CCCCC1 | inactive: 1.01
24 | C[C@@H]1CCCCO[C@@H](CN(C)Cc2ccccc2)[C@@H](C)CN([C@H](C)CO)C(=O)c2cc(NC(=O)Nc3ccccc3)ccc2O1 | inactive: 0.996
25 | Cc1noc(C)c1S(=O)(=O)N(C)C[C@H]1OCCCC[C@@H](C)Oc2ccc(NC(=O)Nc3ccc(F)cc3)cc2C(=O)N([C@@H](C)CO)C[C@@H]1C | inactive: 1.02
26 | Cc1noc(C)c1S(=O)(=O)N(C)C[C@@H]1OCCCC[C@@H](C)Oc2ccc(NC(=O)Nc3ccc(F)cc3)cc2C(=O)N([C@H](C)CO)C[C@@H]1C | inactive: 1.03
27 | C[C@@H]1CN([C@H](C)CO)C(=O)Cc2cc(NC(=O)Nc3cccc4ccccc34)ccc2O[C@H]1CN(C)Cc1ccc(C(=O)Nc2ccccc2N)cc1 | inactive: 1.01
28 | O=C1OCCC/C=C\[C@H]2O[C@@]34C=CCN(Cn5nnc6ccccc65)C(=O)[C@H]3N(CCO)C(=O)[C@@H]4[C@@H]12 | inactive: 0.997
29 | O=C(O)CN(CCN(CC(=O)O)CC(=O)O)CC(=O)O.[Na+].[Na+] | inactive: 1
30 | C[C@H]1CN([C@@H](C)CO)C(=O)c2cc(NC(=O)C3CCCCC3)ccc2O[C@@H]1CN(C)Cc1ccc(C(F)(F)F)cc1 | inactive: 1.02
31 | C[C@H](CO)N1C[C@H](C)[C@H](CN(C)CC2CCCCC2)Oc2c(NC(=O)CCCCCC(=O)Nc3ccccc3N)cccc2C1=O | inactive: 1.02
32 | CCO[C@H]1[C@H]2CC[C@@H]1N(C(=O)CS(C)(=O)=O)CCO2 | inactive: 0.993
